Screen size: about 330,000 compounds; about 40 (0.01%) were called active. Inconclusive results, whose numbers are uncertain, are shown with a selection of clear calls. The call rests on the fitted dose curve; in most records, active means well fitted inhibition curve with a large enough effect; inconclusive means small, poorly fitted or top-dose-only effect, or effect the other way; inactive means flat fitted curve, though single readings scatter. Where the call is inconclusive, the potency comes from a doubtful curve fit.
These molecules were tested against Ubiquitin carboxyl-terminal hydrolase 2 (Homo sapiens) (UniProt O75604) (assay: qHTS Assay for Inhibitors of Ubiquitin-specific Protease USP2a Using CHOP2 as the Reporter). Conditions: USP2 core, Ub-CHOP2 coupled fluorogenic reporter, 485/531; activity change, negative = inhibition: at 38.3 µM (top of the series).
Chain of UniProt O75604 (O75604 whole entry, looked up): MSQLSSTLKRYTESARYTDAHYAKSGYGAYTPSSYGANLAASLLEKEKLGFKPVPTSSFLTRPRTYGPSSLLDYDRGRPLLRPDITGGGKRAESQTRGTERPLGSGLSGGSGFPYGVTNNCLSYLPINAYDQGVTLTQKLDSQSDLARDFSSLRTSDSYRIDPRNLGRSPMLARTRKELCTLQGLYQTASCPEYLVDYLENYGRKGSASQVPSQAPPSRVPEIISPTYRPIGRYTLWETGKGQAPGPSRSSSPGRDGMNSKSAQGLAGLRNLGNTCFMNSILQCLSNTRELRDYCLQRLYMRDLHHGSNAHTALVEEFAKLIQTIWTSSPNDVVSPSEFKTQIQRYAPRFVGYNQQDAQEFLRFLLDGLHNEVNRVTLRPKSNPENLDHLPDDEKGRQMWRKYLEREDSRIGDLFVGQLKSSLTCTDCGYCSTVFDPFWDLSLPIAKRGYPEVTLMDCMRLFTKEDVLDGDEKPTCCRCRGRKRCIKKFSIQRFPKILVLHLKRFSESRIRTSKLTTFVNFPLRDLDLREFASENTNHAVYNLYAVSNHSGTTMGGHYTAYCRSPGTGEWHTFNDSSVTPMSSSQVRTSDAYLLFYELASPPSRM
Procedure, shortened: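 Deubiquitinase activity read as fluorescence (485/531 nm) after Ub-CHOP2 cleavage activates the enterokinase reporter on its substrate; USP2 core 10nM, Ub-CHOP2 and substrate 25nM each, 30min compound preincubation then 60min RT; data normalized to NEM, curves fitted.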
Potency means the concentration at half of the fitted maximal effect; tags describe the fitted curve by direction and shape or compound fluorescence and quenching.
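Wherever activity change, negative = inhibition is given: plate controls were DMSO wells for no effect and full inhibition by NEM control for full effect.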

| Structure (SMILES) | Potency | activity change, negative = inhibition |
| --- | --- | --- |
| Cc1cc(C)cc(C(=O)Nc2ccc(N3CCCC3)cc2)c1 | inconclusive: 28.2 µM [falling, single point] | – |
| NC(=O)CC(NC(=O)Cc1ccc(Br)cc1)c1ccc(N2CCC(Cc3ccccc3)CC2)c([N+](=O)[O-])c1 (stereo not drawn) | inconclusive: 12.6 µM [falling, single point] | – |
| Cc1ccc(C(=O)NCCNS(=O)(=O)c2ccccc2)cc1 | inconclusive: 28.2 µM [falling, single point] | – |
| N#Cc1cc(Sc2ccccn2)c(Sc2ccccn2)cc1C#N | inconclusive: 22.4 µM [falling, single point] | – |
| CCCSCCCNC(=O)CC1Oc2ccccc2NC1=O (stereo not drawn) | inconclusive: 28.2 µM [falling, single point] | – |
| O=C(CSc1ccccn1)c1ccc(F)cc1 | – | inactive: 2.2% |
| Cc1ccc(NC(=O)c2cc3c(=O)oc4ccccc4c3s2)nc1 | inconclusive: 5.01 µM [falling, single point] | – |
| c1ccc2[nH]c3cc4ncnc4cc3nc2c1 | inconclusive: 11.2 µM [fluorescent, partial curve] | – |
| c1ccc(SCCc2ccncc2)cc1 | – | inactive: 0.78% |
| O=c1c2c(nc3cc(-c4ccc(Br)cc4)[nH]n13)CCCC2 | – | inactive: 4.3% |
| CC(C)C(=O)N1CCN(c2ccc([N+](=O)[O-])c(NC(C)c3ccccc3)c2)CC1 (stereo not drawn) | – | inactive: 2.33% |
| CCCC(=O)N1CCN(c2ccc(NC(=O)c3cc4ccccc4o3)cc2)CC1 | – | inactive: 0.616% |
| Cn1c(=O)c(Nc2ccc(Cl)cc2)c2c3c(cccc31)C(=O)c1ccccc1-2 | inconclusive: 11.2 µM [fluorescent, partial curve] | – |
| O=C(COC(=O)c1ccc(N2CCCC2=O)cc1)NCc1ccco1 | inconclusive: 12.6 µM [fluorescent, single point] | – |
| CCNC(=S)N/N=C/c1sc(N2CCCCC2)nc1-c1cccs1 | inconclusive: 28.2 µM [fluorescent, single point] | – |
| O=C(Nc1cccc(S(=O)(=O)NC2=NCCC2)c1)c1cc(=O)[nH]c2ccccc12 | – | inactive: 0.745% |
| CC(C)(C)c1cc[n+](-c2[nH]c(=O)sc2/C=N/NC([S-])=Nc2ccccc2)cc1 | inconclusive: 11.2 µM [fluorescent, partial curve] | – |
| CCCc1ccc(C2=Nn3c(nnc3C(C)C)SC2)cc1 | – | inactive: -0.443% |
| COc1ccc(C2CC(c3cccs3)=NN2c2ccc(C=O)cc2)cc1 (stereo not drawn) | inconclusive: 10 µM [fluorescent, partial curve] | – |
| COc1cccc(NC(=S)N2CCCC2c2ccc(OC)c(OC)c2)c1 (stereo not drawn) | – | inactive: 2.76% |
| C1=C(c2ccc(-c3ccccc3)cc2)Nc2ncnn2C1c1ccco1 (stereo not drawn) | inconclusive: 22.4 µM [fluorescent, single point] | – |
| O=C(Nc1ccc(OCc2ccccc2)cc1)c1ccccc1 | – | inactive: 1.03% |
| COc1ccccc1N1C(=O)c2cccc3c(N(C)CCO)ccc(c23)C1=O | inconclusive: 11.2 µM [fluorescent, partial curve] | – |

| Structure (SMILES) | Potency | activity change, negative = inhibition |
| --- | --- | --- |
| N=C1/C(=C\c2ccc(-c3cccc(Cl)c3)o2)C(=O)N=C2SC=C(c3ccccc3)N12 | inconclusive: 28.2 µM [falling, single point] | – |
| Cc1ccccc1NC(=O)Cn1c(NCC(C)O)nc2ccccc21 (stereo not drawn) | inconclusive: 0.501 µM [falling, full curve, poor fit] | – |
| O=C(/C=C/c1ccc(O)c(O)c1)c1ccc(S(=O)(=O)N2CCCCCC2)cc1 | inconclusive: 28.2 µM [falling, single point] | – |
| O=C(Nc1nnc(SCc2ccccc2)s1)c1cc2c(s1)CCCC2 | – | inactive: 0.0317% |
| CC(=O)COc1ccc2c(-c3ccccc3)cc(=O)oc2c1 | inconclusive: 28.2 µM [falling, single point] | – |
| N#CC(C(=O)Nc1ccc(Cl)cc1)=C1Nc2ccccc2N1 | – | inactive: 0.0109% |
| CC(OC(=O)CN(C)S(=O)(=O)c1ccc(Cl)cc1)C(=O)Nc1ccc(N2CCOCC2)cc1 (stereo not drawn) | inconclusive: 28.2 µM [falling, single point] | – |
| CCN(CC)C(=O)C1c2ccccc2Oc2ccccc21 | inconclusive: 11.2 µM [fluorescent, partial curve] | – |
| Cc1ccc2sc(N(CCCN(C)C)C(=O)c3ccc(S(=O)(=O)N(C)C4CCCCC4)cc3)nc2c1C | – | inactive: 2.6% |
| Cc1cc(N2CCN(c3ccc(F)cc3)CC2)n2ncnc2n1 | – | inactive: 9.32% |
| CCn1c(Cl)c(C=O)s/c1=N\S(=O)(=O)c1ccccc1 | inconclusive: 28.2 µM [fluorescent, single point] | – |
| COc1ccccc1CNC(=O)COc1cc2c(c3oc(=O)cc(C)c13)CCC(C)(C)O2 | – | inactive: 1.51% |
| COc1ccc(S(=O)(=O)NCCSCc2ccco2)cc1OC | inconclusive: 28.2 µM [falling, single point] | – |
| CCc1ccc[n+](-c2[nH]c(=O)sc2/C=N/NC([S-])=Nc2ccccc2)c1 | inconclusive: 8.91 µM [fluorescent, partial curve] | – |
| O=C(O)c1cccc(NC(=O)c2ccc(Cl)c(S(=O)(=O)N3CCCCCC3)c2)c1 | – | inactive: 1.96% |
| C=CC[C@H](CC(=O)N(CCO)Cc1ccccc1)C(=O)N[C@H](C)COC(=O)[C@@H](CC=C)CC(=O)OC(C)(C)C | inconclusive: 22.4 µM [falling, single point] | – |
| CN1/C(=C\C=C2/SC(=S)NC2=O)C(C)(C)c2ccccc21 | inconclusive: 11.2 µM [fluorescent, partial curve] | – |
| CC(C)OCCCNC(=O)CN1C(=O)CC(C)(C)S(=O)(=O)c2ccccc21 | inconclusive: 22.4 µM [falling, single point] | – |
| O=C1c2cccc3c(N4CCCCC4)ccc(c23)C(=O)N1c1ccc(O)cc1 | inconclusive: 10 µM [fluorescent, partial curve] | – |
| CCn1c(SCC(=O)OCc2ccccc2)nnc1-c1ccco1 | – | inactive: 5.38% |
| C=CCn1c(NCc2cc(C)ccc2O)nc2ccccc21 | inconclusive: 5.01 µM [falling, single point] | – |
| O=C1/C(=C\c2cc(Cl)c(O)c(Cl)c2)SC(=S)N1Cc1ccccc1 | inconclusive: 1.26 µM [fluorescent, full curve] | – |
| COc1ccc(CCN2C(=O)/C(=C\c3ccco3)SC2=S)cc1OC | inconclusive: 28.2 µM [falling, single point] | – |

| Structure (SMILES) | Potency | activity change, negative = inhibition |
| --- | --- | --- |
| CCN1/C(=C/C=C/c2oc3ccc4ccccc4c3[n+]2CC)Oc2ccc3ccccc3c21 | inconclusive: 3.98 µM [fluorescent, partial curve] | – |
| O=C(NC(=S)N1CCCc2ccccc21)c1ccc([N+](=O)[O-])cc1 | inconclusive: 28.2 µM [falling, single point] | – |
| CN(C)CCCN1C(=O)C(=O)/C(=C(/O)c2ccncc2)C1c1cccnc1 (stereo not drawn) | inconclusive: 28.2 µM [falling, single point] | – |
| CCc1nnc(NS(=O)(=O)c2ccc(N=Cc3c(C)[nH]n(-c4ccc(C)c(C)c4)c3=O)cc2)s1 | inconclusive: 28.2 µM [fluorescent, single point] | – |
| COc1cc(C2C(C#N)=C(N)Oc3c2ccc2ccccc32)ccc1OCC(=O)Nc1cccc(C)c1 (stereo not drawn) | inconclusive: 22.4 µM [falling, single point] | – |
| O=C(Nc1ccc(S(=O)(=O)N2CCCC2)cc1)c1ccccc1 | – | inactive: -0.445% |
| O=C1C2=C(C(=O)c3ccccc31)C1O[C@](c3ccsc3)(Cc3c1ccc1ccccc31)O2 | inconclusive: 5.01 µM [falling, single point] | – |
| O=S(=O)(Nc1nc(-c2sccc2Cl)cs1)c1cc(Cl)ccc1Cl | inconclusive: 22.4 µM [falling, single point] | – |
| Cn1cc(/C=C/c2cc[n+](C)cc2)c2cc(Cl)ccc21 | inconclusive: 11.2 µM [fluorescent, partial curve] | – |
| Cc1noc(C)c1NC(=O)Nc1ccc2c(c1)C(=O)N([C@H](C)CO)C[C@H](C)[C@@H](CN(C)S(=O)(=O)c1ccccc1)O2 | inconclusive: 20 µM [falling, single point] | – |
| COc1cccc(Cn2c(N)c(C#N)c3nc4ccccc4nc32)c1OC | – | inactive: 1.09% |
| Cc1ccc2cc(CN(C(=O)c3ccco3)c3ccccc3)c(=O)[nH]c2c1 | – | inactive: 0.637% |
| CCOC(=O)Cc1ccc(NC(=O)c2ccccc2Br)cc1 | – | inactive: 0.767% |
| Cn1nc(-c2ccc(Cl)cc2)c2cc(C(=O)N3CCN(c4ccccn4)CC3)sc21 | inconclusive: 20 µM [falling, single point] | – |
| CCCC(=O)Nc1c(-c2ccccc2OC)c(=O)c2ccccc2n1C | – | inactive: 2.62% |
| Cn1c(=O)c(NC2CCCCC2)c2c3c(cccc31)C(=O)c1ccccc1-2 | inconclusive: 3.55 µM [fluorescent, partial curve] | – |
| O=C(CSc1nc2ccccc2[nH]1)Nc1ccc2c(c1)OCCO2 | inconclusive: 5.01 µM [falling, single point] | – |
| O=C(CSc1nc2ccccc2n1CCc1ccccc1)c1ccc(O)c(O)c1 | inconclusive: 20 µM [falling, single point] | – |
| O=C(O)C(Cc1ccccc1)N1C(=O)/C(=C/C=C/c2ccco2)SC1=S (stereo not drawn) | inconclusive: 10 µM [falling, single point] | – |
| CCCn1c(NC(=O)c2ccc(Br)cc2)nc2ccccc21 | inconclusive: 28.2 µM [falling, single point] | – |
| Cc1cccc(N=C2NC(=O)/C(=C/C=C/c3ccco3)S2)c1C | inconclusive: 25.1 µM [falling, single point] | – |
| O=[N+]([O-])c1cc(-c2nnc(Nc3ccccc3)c3ccccc23)ccc1N1CCOCC1 | inconclusive: 22.4 µM [falling, single point] | – |

From PubChem BioAssay AID463254 (National Center for Advancing Translational Sciences (NCATS), 2010)
